According to PubChem BioAssay AID1460 (National Center for Advancing Translational Sciences (NCATS), 2008):
Where “and” joins values, the source holds several entries; their conditions need not be identical. Equal values may be shown once. Among all 270,000 compounds or so, about 5,800 (2.1%) were called active. This list was built around the results that the source calls inconclusive (neither active nor inactive); the mix of calls is not that of the screen. Calls come from the whole dose curve; as a rule, active = well fitted inhibition curve with a large enough effect; inconclusive = small, poorly fitted or top-dose-only effect; inactive = flat fitted curve, though single readings scatter. Where the call is inconclusive, the potency comes from a doubtful curve fit.

molecular target: Microtubule-associated protein tau (Homo sapiens) (UniProt P10636); assay: qHTS for Inhibitors of Tau Fibril Formation, Thioflavin T Binding; conditions: recombinant tau K18 P301L (four-repeat tau fragment), heparin-induced fibrillization, ThT fluorescence; series mostly up to 57.4 µM; note: nearly all actives have a fitted effect of over 55% in size
How it was run: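 K18 P301L tau (15 uM + 0.24 uM Alexa 594-tagged), heparin 20 uM, NaOAc pH 7, 6 h 37 C; ThT 30 uM, 1 h RT, ex 450/em 510 nm.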
Potency is the fitted concentration of half-maximal effect; tags give direction and shape of the fitted curve.

UniProt P10636, sequence (P10636 whole entry, looked up, the tested form may be a part): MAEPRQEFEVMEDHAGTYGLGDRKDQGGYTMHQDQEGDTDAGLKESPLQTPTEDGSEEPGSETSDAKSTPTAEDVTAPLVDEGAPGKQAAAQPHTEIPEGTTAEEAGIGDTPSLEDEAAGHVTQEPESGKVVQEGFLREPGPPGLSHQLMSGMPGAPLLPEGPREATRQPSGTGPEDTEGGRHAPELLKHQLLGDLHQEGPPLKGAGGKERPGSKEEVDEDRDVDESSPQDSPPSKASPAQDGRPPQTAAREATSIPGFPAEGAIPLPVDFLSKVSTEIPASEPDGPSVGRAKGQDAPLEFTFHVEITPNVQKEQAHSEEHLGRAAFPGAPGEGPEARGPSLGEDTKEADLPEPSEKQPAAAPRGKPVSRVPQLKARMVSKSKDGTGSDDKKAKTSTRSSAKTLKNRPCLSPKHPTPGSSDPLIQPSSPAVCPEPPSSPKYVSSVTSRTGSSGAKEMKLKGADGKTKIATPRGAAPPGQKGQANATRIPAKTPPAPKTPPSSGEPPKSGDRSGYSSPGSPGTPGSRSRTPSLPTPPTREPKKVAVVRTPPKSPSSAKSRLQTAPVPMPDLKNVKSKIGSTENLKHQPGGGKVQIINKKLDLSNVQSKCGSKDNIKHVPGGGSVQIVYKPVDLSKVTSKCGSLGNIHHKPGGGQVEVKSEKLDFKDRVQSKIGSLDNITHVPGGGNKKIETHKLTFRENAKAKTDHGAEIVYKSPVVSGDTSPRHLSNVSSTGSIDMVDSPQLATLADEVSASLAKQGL

Q: CCn1c2ccccc2c2cc(CN3CCN(Cc4ccccc4C)CC3)ccc21 was tested. Which Potency did it give?
A: inconclusive: 20 µM [inhibitor, single point]

Q: Which Potency does the source give for Cc1oc(C)c2c(=O)ccc3c(c12)OC(N)=C(C#N)C3c1ccc(F)cc1 (centres undefined) here?
A: active: 25.1 µM

Q: For COc1ccc(-c2nnc(SCC(=O)c3cccs3)o2)cc1, which Potency is on record?
A: inconclusive: 2.51 µM [inhibitor, full curve]

Q: Which Potency does the source give for O=S(=O)(N/N=C/c1ccc(N2CCOCC2)cc1)c1ccc(Br)cc1 here?
A: inconclusive: 20 µM [inhibitor, partial curve]

Q: O=C(Nc1ccc(S(=O)(=O)N2CCCCCC2)cc1)c1cc(=O)c2ccccc2o1 was tested. Which Potency did it give?
A: inactive

Q: Which Potency does the source give for CC1CCCN(Cc2c(O)ccc3c2O/C(=C\c2ccco2)C3=O)C1 (centres undefined) here?
A: inconclusive: 28.2 µM [activator, partial curve, poor fit]

Q: Which Potency does the source give for COc1cccc2c(=O)c3cccc(N)c3[nH]c12 here?
A: inconclusive: 22.4 µM [inhibitor, partial curve]

Q: How did the Potency turn out when O=C(Nc1ccc(-c2csc(Nc3cccc(C(F)(F)F)c3)n2)cc1)c1cc([N+](=O)[O-])cc(C(F)(F)F)c1 was run?
A: inconclusive: 3.55 µM [inhibitor, partial curve]

Q: Which Potency does the source give for O=S1(=O)N=C(Oc2cccc3ccccc23)c2ccccc21 here?
A: inconclusive: 31.6 µM [inhibitor, single point]

Q: With Oc1ccc(/C=N\Nc2cc(N3CCOCC3)nc(N3CCOCC3)n2)c(O)c1 as the compound, how does the Potency read?
A: inconclusive: 11.2 µM [inhibitor, partial curve]

Q: With COc1ccc2[nH]c3c(=O)n(Cc4ccc(C(=O)N5CCC(C(N)=O)CC5)cc4)c(=S)[nH]c3c2c1 as the compound, how does the Potency read?
A: inconclusive: 39.8 µM [inhibitor, single point]

Q: Which Potency does the source give for CC(C)(C)C(=O)COC(=O)c1cc(-c2cccnc2)nc2ccccc12 here?
A: inactive

Q: For CC1=C(C(=O)Nc2ccc(C)cc2C)C(c2ccccc2F)n2nc(SCC(=O)c3ccc(C)cc3)nc2N1 (centres undefined), which Potency is on record?
A: inconclusive: 15.8 µM [activator, partial curve]

Q: How did the Potency turn out when O=S(=O)(Nc1ccc(-c2ccc(N3CCCC3)nn2)cc1)c1cc(F)ccc1F was run?
A: inconclusive: 31.6 µM [inhibitor, single point]

Q: With CCN1CCc2c(sc(NC(=S)NC(=O)c3ccc(Cl)cc3)c2C(N)=O)C1 as the compound, how does the Potency read?
A: inconclusive: 12.6 µM [inhibitor, partial curve]

Q: Which Potency does the source give for CCC(C)C1=CC(=Nc2c(C)n(C)n(-c3ccccc3)c2=O)C=C(C(C)CC)C1=O (centres undefined) here?
A: inconclusive: 10 µM [inhibitor, partial curve]

Q: With Nc1ccc(C(=O)O)c(O)c1 as the compound, how does the Potency read?
A: inactive and inconclusive: 17.8 µM [inhibitor, partial curve] and inconclusive: 14.1 µM [inhibitor, partial curve]

Q: With Cc1cc(C)n2nc(SCCOc3ccccc3)nc2n1 as the compound, how does the Potency read?
A: inactive

Q: How did the Potency turn out when CC1CC(C)CN(C(=O)CSCC(=O)Nc2nc(-c3cccs3)cs2)C1 (centres undefined) was run?
A: inconclusive: 28.2 µM [inhibitor, partial curve]

Q: Which Potency does the source give for Cc1ccc(/C=C/c2nc3ccccc3[nH]2)o1 here?
A: inconclusive: 17.8 µM [inhibitor, partial curve]

Q: COCCn1c(C)cc(C(=O)COc2cccnc2[N+](=O)[O-])c1C was tested. Which Potency did it give?
A: inactive

Q: How did the Potency turn out when CC(Oc1ccccc1F)C(=O)Nc1ccc(-c2nc3ccccc3s2)cc1 (centres undefined) was run?
A: inactive

Q: For COc1cccc(CNC(=S)Nc2cc(C)ccc2C)c1, which Potency is on record?
A: inactive

Q: How did the Potency turn out when COc1cc(NC(=O)c2ccc(C)c([N+](=O)[O-])c2)ccc1NC(=O)c1ccco1 was run?
A: inconclusive: 3.98 µM [inhibitor, partial curve]

Q: With COc1ccc2c(c1)CCc1c(C(=O)N3CCc4ccccc4C3)noc1-2 as the compound, how does the Potency read?
A: inconclusive: 4.47 µM [inhibitor, full curve]

Q: With COC(=O)c1sccc1NC(=O)COc1ccc(Cl)cc1 as the compound, how does the Potency read?
A: inconclusive: 44.7 µM [inhibitor, single point]

Q: For COC(=O)c1ccccc1NC(=S)NC(=O)c1ccccc1F, which Potency is on record?
A: inconclusive: 25.1 µM [inhibitor, single point]

Q: With COC(=O)[C@@H](NC(=O)Nc1ccc(S(N)(=O)=O)cc1)C(C)C as the compound, how does the Potency read?
A: inactive

Q: How did the Potency turn out when Cc1cc(C)c2sc(N(CCCN(C)C)C(=O)COc3ccc(Cl)cc3)nc2c1 was run?
A: inactive

Q: Which Potency does the source give for Nc1c(-c2nc(-c3ccc(F)cc3)cs2)c2ccccn2c1C(=O)c1ccc2c(c1)OCO2 here?
A: inconclusive: 3.55 µM [inhibitor, full curve]

Q: With CCOc1ccc(NS(=O)(=O)c2ccc3[nH]cc(C(=O)NCC4CCCO4)c(=O)c3c2)cc1 (centres undefined) as the compound, how does the Potency read?
A: inactive and inconclusive: 891 nM [inhibitor, partial curve]

Q: Which Potency does the source give for CS(=O)(=O)N1CCc2cc(-c3csc(NCC4CCCO4)n3)ccc21 (centres undefined) here?
A: inconclusive: 25.1 µM [inhibitor, single point]

Q: With CC(=O)c1ccc(N2CCN(C(=O)CCS(=O)(=O)c3ccc4c(c3)oc(=O)n4C)CC2)cc1 as the compound, how does the Potency read?
A: inconclusive: 4.47 µM [inhibitor, full curve]

Q: For CC(=O)c1ccc(N2CCN(C(=O)c3cc4c(s3)CCCC4)CC2)cc1, which Potency is on record?
A: inconclusive: 15.8 µM [inhibitor, partial curve]

Q: With Nc1[nH]nc2nc3ccccc3cc12 as the compound, how does the Potency read?
A: inconclusive: 10 µM [inhibitor, partial curve, poor fit]

Q: Which Potency does the source give for Cc1cccc(Cc2c(C)nc3nc(SCC(=O)NCc4ccco4)nn3c2C)c1 here?
A: inactive

Q: For Cc1ccc(/C=C2\Sc3ccccc3C2=O)s1, which Potency is on record?
A: active: 3.16 µM

Q: Which Potency does the source give for CCc1ccc2c(c1)NC(c1ccc(OC)cc1)=NC(c1ccncc1)=N2 here?
A: inconclusive: 14.1 µM [inhibitor, partial curve]

Q: How did the Potency turn out when O=C(O)c1ccc(NC2=C/C(=N/S(=O)(=O)c3ccccc3)c3ccccc3C2=O)cc1 was run?
A: active: 14.1 µM

Q: For Cc1ccc(Cn2c(=S)[nH]c3ccc(N4CCOCC4)cc3c2=O)o1, which Potency is on record?
A: inconclusive: 10 µM [inhibitor, partial curve]

Q: Which Potency does the source give for C/C(=N\NC(=O)CSCc1ccc([N+](=O)[O-])cc1)c1ccccc1O here?
A: inconclusive: 15.8 µM [inhibitor, partial curve]

Q: With COc1cc(SC)ccc1C(=O)Nc1ccc2c(c1)OCO2 as the compound, how does the Potency read?
A: inconclusive: 7.94 µM [inhibitor, partial curve]

Q: Which Potency does the source give for Cc1cccc(-c2nc3c4ccccc4nc(NCc4ccc(F)cc4)n3n2)c1 here?
A: inconclusive: 39.8 µM [activator, single point]

Q: Which Potency does the source give for C=CCSc1nc2c(c(=O)[nH]c(=O)n2C)n1C/C=C(/C)Cl here?
A: inactive

Q: For Cc1cc(=O)c2c(O)cc(O)c(C)c2o1, which Potency is on record?
A: active: 25.1 µM

Q: For COc1ccc(C2CC(=O)Oc3cc4c(cc32)OCO4)cc1 (centres undefined), which Potency is on record?
A: inconclusive: 50.1 µM [inhibitor, partial curve, poor fit]

Q: With COC(=O)[C@@]1(Cc2ccc(F)cc2)[C@@H]2C(=CC(=O)[C@H]2CC(=O)C(=O)N2CCCC2)CN1C(=O)c1ccccc1 as the compound, how does the Potency read?
A: inconclusive: 25.1 µM [inhibitor, partial curve, poor fit]

Q: Cc1ccc(NC(=O)CN2C(=O)S/C(=C\c3ccc(-c4cccc(C(=O)O)c4C)o3)C2=O)cc1 was tested. Which Potency did it give?
A: inconclusive: 8.91 µM [inhibitor, partial curve]

Q: COC(=O)c1ccc(CC(=O)c2c(C)cc(O)cc2O)o1 was tested. Which Potency did it give?
A: active: 28.2 µM

Q: For COC(=O)c1ccc(C(/C=C/[C@@H](C)C(=O)NCc2ccc(OC)c(O)c2)NC(=O)OCc2ccccc2)cc1 (some centres undefined), which Potency is on record?
A: inconclusive: 5.62 µM [inhibitor, full curve, poor fit]

Q: How did the Potency turn out when CN1CCN(C(=S)c2ccc(-c3cccc([N+](=O)[O-])c3)o2)CC1 was run?
A: inconclusive: 11.2 µM [inhibitor, partial curve]

Q: For O=S(=O)(c1ccc(OCc2nc3ccccc3s2)c(Cl)c1)N1CCOCC1, which Potency is on record?
A: inactive

Q: Which Potency does the source give for Cc1ccc2cc(CN(Cc3ccco3)S(=O)(=O)c3c(C)ccc4nsnc34)c(=O)[nH]c2c1 here?
A: inconclusive: 25.1 µM [inhibitor, partial curve]

Q: Which Potency does the source give for CC1CCN(C2=C(NS(=O)(=O)c3ccccc3)C(=O)c3ccccc3C2=O)CC1 here?
A: active: 12.6 µM

Q: Which Potency does the source give for COc1ccc(S(=O)(=O)c2cnc(SCC(=O)Nc3cc(F)ccc3C)[nH]c2=O)cc1Cl here?
A: inconclusive: 44.7 µM [inhibitor, single point]

Q: COc1ccc(C2CC(=O)c3cc(-c4nc(-c5cccc([N+](=O)[O-])c5)cs4)c(=O)n(-c4ccc(OC)cc4)c3C2)cc1 (centres undefined) was tested. Which Potency did it give?
A: inconclusive: 3.55 µM [inhibitor, partial curve, poor fit]

Q: For CCCCCCCCCCCCCCCCCCNC(=O)OCC(COP(=O)([O-])OCC[n+]1ccsc1)OC (centres undefined), which Potency is on record?
A: inactive

Q: For O=C(CSc1c2c(nc3cc(Cl)ccc13)CCCC2)NCc1ccccc1Cl, which Potency is on record?
A: inconclusive: 1.58 µM [inhibitor, full curve, poor fit]

Q: With Cc1cc(C2=NNC(=Nc3ccccc3)SC2)c(C)n1C as the compound, how does the Potency read?
A: inconclusive: 15.8 µM [inhibitor, partial curve]

Q: COC(=O)c1sccc1NC(=S)Nc1ccc(F)cc1F was tested. Which Potency did it give?
A: inactive

Q: How did the Potency turn out when Cc1ccc(NC(=O)CN(C)C(=O)CSc2nnc(C(F)(F)F)n2C)cc1 was run?
A: inconclusive: 31.6 µM [inhibitor, single point]

Q: With COc1ccc(-c2cn(/N=C/c3ccc(Cl)cc3Cl)c(N)n2)cc1 as the compound, how does the Potency read?
A: inconclusive: 35.5 µM [inhibitor, partial curve, poor fit]

Q: For COc1ccc(C(=O)CC(=O)C(=O)Nc2cc(Cl)c(OC)cc2OC)cc1, which Potency is on record?
A: inconclusive: 39.8 µM [inhibitor, single point]

Q: Which Potency does the source give for Cc1nnc2n1N=CC=C(C(C)(C)C)S2 here?
A: inactive
